Measured values: paper PMC4336329 (PLoS ONE, 2015)
The campaign covered roughly 310,000 compounds. About 2,200 (0.71%) showed an effect of 50% or more. Effects have a minus sign here. This is one part of the list.

molecular target: human ether-à-go-go-related gene (hERG) potassium channel (human, UniProt Q12809); assay: primary screen, population patch clamp on CHO cells stably expressing hERG
Sequence (Q12809 whole entry, looked up): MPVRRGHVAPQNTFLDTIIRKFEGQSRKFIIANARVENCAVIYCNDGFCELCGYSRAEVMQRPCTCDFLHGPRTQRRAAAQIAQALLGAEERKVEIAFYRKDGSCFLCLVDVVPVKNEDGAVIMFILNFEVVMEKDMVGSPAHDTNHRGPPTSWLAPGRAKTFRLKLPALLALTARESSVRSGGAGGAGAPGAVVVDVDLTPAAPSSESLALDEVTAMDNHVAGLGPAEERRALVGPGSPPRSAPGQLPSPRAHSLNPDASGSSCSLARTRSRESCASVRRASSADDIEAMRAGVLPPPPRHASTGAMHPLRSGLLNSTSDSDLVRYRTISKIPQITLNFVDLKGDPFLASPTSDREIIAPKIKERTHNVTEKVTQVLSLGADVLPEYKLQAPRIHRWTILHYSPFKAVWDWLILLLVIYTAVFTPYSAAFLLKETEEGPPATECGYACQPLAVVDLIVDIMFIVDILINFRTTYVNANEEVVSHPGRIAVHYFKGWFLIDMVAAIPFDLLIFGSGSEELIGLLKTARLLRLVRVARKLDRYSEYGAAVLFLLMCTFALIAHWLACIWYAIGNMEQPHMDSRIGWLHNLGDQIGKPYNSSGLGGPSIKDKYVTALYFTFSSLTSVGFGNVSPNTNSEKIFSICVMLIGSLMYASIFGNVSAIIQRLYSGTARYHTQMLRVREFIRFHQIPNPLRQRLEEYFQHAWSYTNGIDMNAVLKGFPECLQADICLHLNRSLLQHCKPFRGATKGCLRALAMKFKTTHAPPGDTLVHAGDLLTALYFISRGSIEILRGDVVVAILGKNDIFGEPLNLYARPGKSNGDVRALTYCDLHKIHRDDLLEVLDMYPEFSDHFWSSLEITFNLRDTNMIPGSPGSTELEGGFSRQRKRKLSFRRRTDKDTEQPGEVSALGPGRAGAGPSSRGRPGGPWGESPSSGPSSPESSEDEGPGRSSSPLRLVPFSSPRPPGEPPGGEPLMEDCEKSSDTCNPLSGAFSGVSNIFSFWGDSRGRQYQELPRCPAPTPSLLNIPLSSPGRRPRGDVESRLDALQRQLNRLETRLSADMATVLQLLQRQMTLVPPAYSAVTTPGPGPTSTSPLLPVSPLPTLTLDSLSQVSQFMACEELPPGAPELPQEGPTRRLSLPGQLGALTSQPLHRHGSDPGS

Row | SMILES | hERG current change (%, negative = inhibition) at 1uM [%]
1 | CN(C(=O)c1ccc(NC(=O)Cc2cccc(NC(=O)C3CCN(C(=O)C4CC4)CC3)c2)cc1)C1CCCC1 | 18.3
2 | O=C(Nc1ccc(NC(=S)NC(=O)C(c2ccccc2)c2ccccc2)cc1)c1ccccc1 | 2.03
3 | CSc1ncc(C(=O)Nc2ccc(C)cc2C)c(C)n1 | 23
4 | Cn1nc(C(=O)OCC(=O)NC2CCS(=O)(=O)C2)c2ccccc2c1=O (stereo not shown) | -0.731
5 | COc1ccc(CCN(C)C(=O)c2cccc(S(=O)(=O)NCc3ccccc3)c2)cc1OC | -1.14
6 | COc1cc(-n2c(=O)c3ccccc3n(Cc3cccc(C)c3)c2=O)cc(OC)c1OC | 7.91
7 | CN1CCN(S(=O)(=O)c2cccc(C(=O)Nc3cc(C(F)(F)F)ccc3N3CCCC3)c2)CC1 | 4.44
8 | COc1ccc(CCNC(=O)C2CCN(S(=O)(=O)c3ccc(C)cc3)CC2)cc1OC | 11.8
9 | CCOC(=O)Nc1ccc2c(c1)N(C(=O)CCN1CCN(C)CC1)c1ccccc1S2.Cl | 0.42
10 | CC(C)(C)OC(=O)N1CCC(C(=O)N[C@@H](Cc2ccccc2)C(=O)O)(c2ccccc2)CC1 | 2.95
11 | O=c1[nH]c(=O)n(Cc2ccco2)c2c1C(C(F)(F)F)(C(F)(F)F)N=C(CCc1ccccc1)N2 | 7.65
12 | CCN1CCN(C(c2cccc(OC)c2OC)c2nnnn2Cc2ccco2)CC1.Cl (stereo not shown) | 4.69
13 | Cc1cc(NC(=O)COC(=O)c2cc(S(=O)(=O)N(C)C)ccc2Cl)no1 | 9.45
14 | CC(C)(C)NCc1ccccc1OCc1cccs1.Cl | 19.3
15 | Cc1nnc2c(NCCC(C)C)nc3ccccc3n12 | 13.3
16 | CCOc1cc(NC(=O)c2ccccc2OC)c(OCC)cc1NC(=O)c1ccccc1 | 12.9
17 | CC1=C(C(N)=O)S(=O)(=O)c2ccccc21 | 11.3
18 | COc1ccc(NC(=O)C2C3C=CC(C3)C2C(=O)NCc2ccco2)cc1 (stereo not shown) | -7.31
19 | COc1ccc(NC(=O)CCc2ccc(OC)c(OC)c2)cn1 | 11.9
20 | O=C(Cc1ccc([N+](=O)[O-])cc1)c1ccc(O)cc1O | -6.24
21 | COc1ccc(C(CCN2CCCCC2)c2c(O)cc(OC)cc2OC)cc1 (stereo not shown) | -71.3
22 | COc1ccc(CCNCCC(=O)Nc2c(C)cc(C)cc2C)cc1OC.Cl | -2.34
23 | Cc1cc2c(c(=O)n1Cc1ccccn1)C(c1ccc3c(c1)OCO3)C(C#N)=C(N)O2 (stereo not shown) | 4.13
24 | CC1Cc2ccccc2N1C(=O)COC(=O)/C=C/c1ccc(F)cc1 (stereo not shown) | 4.39
25 | Cc1c(NC(=O)CN2CCN(c3cccc(Cl)c3)CC2)c(=O)n(-c2ccccc2)n1C | 14.4
26 | COc1cc(C2C(C#N)=C(N)Oc3c2oc(CO)cc3=O)ccc1OC(C)C (stereo not shown) | 10.6
27 | CCc1ccc(S(=O)(=O)NCc2cn3c(C)csc3n2)s1 | 6.79
28 | CCOc1ccc(N=Cc2c(O)n(-c3cc(C)cc(C)c3)c(=O)[nH]c2=O)cc1 | 10.8

Row | SMILES | hERG current change (%, negative = inhibition) at 1uM [%]
29 | O=C(Nc1nc2ccc(S(=O)(=O)N3CCCC3)cc2s1)c1cccs1 | 13.2
30 | CCCSc1nc2c(c(=O)[nH]c(=O)n2C)n1CC(O)COc1ccccc1 (stereo not shown) | 6.58
31 | COc1ccc(-n2cnnc2SCC(=O)N(C)c2ccccc2)cc1 | 8.45
32 | CCOc1ccc(NS(=O)(=O)c2ccc(N)cc2)cc1 | 16.7
33 | CC1CN(c2nnc(-c3ccccc3)c3ccccc23)CC(C)O1 (stereo not shown) | 9.51
34 | COc1ccc(S(=O)(=O)c2ccc(OC)c(OC)c2)cc1OC | 7.86
35 | COc1ccc(S(=O)(=O)NCc2cccnc2)c2ccccc12 | 9.51
36 | CCNC(=O)c1ccccc1NC(=O)C1CC(=O)N(C(C)C)C1 (stereo not shown) | 10.1
37 | CCOc1ccc(N2C(=O)CC(SC(=NC)Nc3cccc(F)c3)C2=O)cc1 (stereo not shown) | -0.651
38 | O=c1[nH]c2ccc(S(=O)(=O)N3CCCCC3)cc2[nH]1 | 13.9
39 | COc1cc(-n2c(C)nc3cc(C(=O)N4CCOCC4)ccc32)cc(OC)c1OC | -1.13
40 | Cc1onc(-c2c(F)cccc2Cl)c1C(=O)OCC(=O)c1c[nH]c2ccccc12 | 11.9
41 | COCC(=O)N1CCc2ccc(NC(=O)c3ccc(C(F)(F)F)cc3)cc2C1 | 0.619
42 | Nc1nnc(COc2ccccc2)s1 | 7
43 | Cc1ccc(N(CC(=O)NCc2cccs2)S(=O)(=O)c2cccs2)cc1 | -1.25
44 | COC(=O)c1c(NC(=O)CC2SC(N)=NC2=O)sc2c1CCC(C)C2 (stereo not shown) | 8.08
45 | Cc1csc(NC(=O)Nc2cccc(Cl)c2)n1 | -1.41
46 | O=C(Nc1nnc(-c2ccco2)o1)C1CCCCC1 | 2.48
47 | NCCSc1c(-c2ccc(Cl)cc2)[nH]c2ccccc12 | -10.9
48 | Oc1ccc(/C=N/N=C/c2ccc(O)cc2)cc1 | 10.8
49 | Cc1cccc(C)c1Nc1nnc(SCC(=O)c2ccc3c(c2)NC(=O)CO3)s1 | 9.58
50 | COC(=O)CNC(=O)Cn1ccc2ccccc2c1=O | 12.5
51 | COCCNC(=S)NNC(=O)c1ccc(-n2cnnn2)cc1 | -3.01
52 | COC(=O)C1=C(C)N(Cc2ccccc2)C(=O)N[C@H]1c1ccco1 | 17.7
53 | C/C(CC(=O)Nc1ccc2c(c1)OCCO2)=N\NC(=O)COc1ccccc1C | 16.6
54 | CC1CCN(C(=O)CSc2nnc(CNC(=O)c3c(F)cccc3F)o2)CC1 | 1.18
55 | COCCn1nnnc1C(c1cccc(OC)c1OC)N1CCN(C(=O)c2ccco2)CC1.Cl (stereo not shown) | 20.1
